# The supplement of paper PMC4604168 (melanoma cell lines)
# The list shows a part of the results. Repeats are few or missing, and single values can be far off.
# Experiments:
# Assay in all cases: cell count relative to DMSO control; melanoma cells; higher = more viable cells
# Details in all cases: library dose: standard library concentration; 72 h
# SkMel28 = tested on: SkMel28
# SkMel2 = tested on: SkMel2
# SkMel30 = tested on: SkMel30
# SkMel5 = tested on: SkMel5
# UACC257 = tested on: UACC257
# UACC62 = tested on: UACC62
# WM115 = tested on: WM115
# WM1716 = tested on: WM1716
# WM1745 = tested on: WM1745
# WM3526 = tested on: WM3526
# 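Also: cells treated in 1,536-well plates, then fixed and DAPI-stained, with nuclei counted from automated high-throughput microscope images.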
Compound,cell count (SkMel28) [%],cell count (SkMel2) [%],cell count (SkMel30) [%],cell count (SkMel5) [%],cell count (UACC257) [%],cell count (UACC62) [%],cell count (WM115) [%],cell count (WM1716) [%],cell count (WM1745) [%],cell count (WM3526) [%]
"CN(c1ncccc1CNc1nc(Nc2ccc3c(c2)CC(=O)N3)ncc1C(F)(F)F)S(C)(=O)=O + O=C(O)[C@@H]1[O][Sb](=[O])([O][Sb]2(=[O])[O][C@H]([C@H](O)CO)[C@H](O)[C@H](C(=O)O)[O]2)[O][C@H]([C@H](O)CO)[C@@H]1O [stibogluconate] (first compound 0.4 µM, partner dose 10 µM)",92.6,96,92.9,77.2,83.4,67.5,95.8,75.9,71.5,96.7
"CN(c1ncccc1CNc1nc(Nc2ccc3c(c2)CC(=O)N3)ncc1C(F)(F)F)S(C)(=O)=O + Cn1cncc1[C@@](N)(c1ccc(Cl)cc1)c1ccc2c(c1)c(-c1cccc(Cl)c1)cc(=O)n2C [tipifarnib] (first compound 0.4 µM, partner dose 0.05 µM)",59.9,88.9,105,82.9,84.3,69.5,69.6,62.1,63.7,107
"CN(c1ncccc1CNc1nc(Nc2ccc3c(c2)CC(=O)N3)ncc1C(F)(F)F)S(C)(=O)=O + Nc1ccn([C@@H]2O[C@H](CO)[C@@H](O)C2(F)F)c(=O)n1 [gemcitabine] (first compound 0.4 µM, partner dose 0.002 µM)",77.3,69,91.4,66.5,87.3,64.9,65.1,78.3,49.1,101
"CS(=O)(=O)c1ccc(C(=O)Nc2ccc(Cl)c(-c3ccccn3)c2)c(Cl)c1 [vismodegib] + CS(=O)(=O)CCNCc1ccc(-c2ccc3ncnc(Nc4ccc(OCc5cccc(F)c5)c(Cl)c4)c3c2)o1 [lapatinib] (first compound 5 µM, partner dose 4 µM)",65.8,79,98.1,51.5,107,61,89.4,93.9,73,63.9
"CCCS(=O)(=O)Nc1ccc(F)c(C(=O)c2c[nH]c3ncc(Cl)cc23)c1F + CC(C)(C)c1cnc(CSc2cnc(NC(=O)C3CCNCC3)s2)o1 [SNS-032] (first compound 0.4 µM, partner dose 0.05 µM)",29.9,71.2,79,52.1,80.3,50.9,37.4,57,50.3,47.1
"CN(c1ncccc1CNc1nc(Nc2ccc3c(c2)CC(=O)N3)ncc1C(F)(F)F)S(C)(=O)=O + CN(C)S(=O)(=O)c1ccc2c(c1)/C(=C/c1cc3c([nH]1)CCCC3)C(=O)N2 [SU6656] (first compound 0.4 µM, partner dose 2 µM)",41.4,72,73.1,64.7,70.8,83.1,43.5,72.5,42,75.1
"CN(c1ncccc1CNc1nc(Nc2ccc3c(c2)CC(=O)N3)ncc1C(F)(F)F)S(C)(=O)=O + C[C@@H](Oc1cc(-c2cnn(C3CCNCC3)c2)cnc1N)c1c(Cl)ccc(F)c1Cl [Crizotinib] (first compound 0.4 µM, partner dose 1 µM)",87.2,79.4,122,83.8,77.1,71.3,58.4,86.3,49.8,100
"C=C(c1ccc(C(=O)O)cc1)c1cc2c(cc1C)C(C)(C)CCC2(C)C [Bexarotene] + Nc1cccc2c1CN(C1CCC(=O)NC1=O)C2=O [lenalidomide] (first compound 10 µM, partner dose 5 µM)",59.3,84.6,101,82.6,81.8,62.1,63.9,84.1,79.8,80.3
"CCCS(=O)(=O)Nc1ccc(F)c(C(=O)c2c[nH]c3ncc(Cl)cc23)c1F + Clc1ccc(Nc2nnc(Cc3ccncc3)c3ccccc23)cc1 [vatalanib] (first compound 0.4 µM, partner dose 10 µM)",55.8,85.7,72.6,57.6,72.8,47.1,67,71,19.9,49.1
"CCCS(=O)(=O)Nc1ccc(F)c(C(=O)c2c[nH]c3ncc(Cl)cc23)c1F + C[C@]1(c2nc3c(C(N)=O)cccc3[nH]2)CCCN1 [Veliparib] (first compound 0.4 µM, partner dose 7 µM)",41.4,79.1,80,75.2,86.6,53.2,75.8,63.1,73.8,54.1
"NC1(c2ccc(-c3nc4ccn5c(=O)[nH]nc5c4cc3-c3ccccc3)cc2)CCC1 + OCCn1cc(-c2cnc3nnn(Cc4ccc5ncccc5c4)c3n2)cn1 [PF04217903] (first compound 2 µM, partner dose 5 µM)",109,74.3,104,84.2,94.4,91.9,68.9,77.5,77.9,78.3
"CN(c1ncccc1CNc1nc(Nc2ccc3c(c2)CC(=O)N3)ncc1C(F)(F)F)S(C)(=O)=O + Cc1ccc(NC(=O)c2cccc(N(C)C)c2)cc1NC(=O)c1ccc(O)cc1 [ZM336372] (first compound 0.4 µM, partner dose 10 µM)",73,66.1,99.8,64.2,62.6,79.1,69.6,117,66.7,101
"CCCS(=O)(=O)Nc1ccc(F)c(C(=O)c2c[nH]c3ncc(Cl)cc23)c1F + C=CCn1c(=O)c2cnc(Nc3ccc(N4CCN(C)CC4)cc3)nc2n1-c1cccc(C(C)(C)O)n1 [MK1775] (first compound 0.4 µM, partner dose 0.1 µM)",32.1,70.6,92.9,35.8,81.7,47.2,46.4,55.5,38.1,39.7
"NC1(c2ccc(-c3nc4ccn5c(=O)[nH]nc5c4cc3-c3ccccc3)cc2)CCC1 + Nc1ccn([C@@H]2O[C@H](CO)[C@@H](O)C2(F)F)c(=O)n1 [gemcitabine] (first compound 2 µM, partner dose 0.002 µM)",55.8,67.6,89.2,68.1,94.4,61.9,56.4,56.7,52.9,58.9
"CS(=O)(=O)c1ccc(C(=O)Nc2ccc(Cl)c(-c3ccccn3)c2)c(Cl)c1 [vismodegib] + O=C(O)c1ccc2c(c1)nc(Nc1cccc(Cl)c1)c1ccncc12 [CX4945] (first compound 5 µM, partner dose 2 µM)",77.1,83.9,65.7,87.9,97.9,75,103,99.5,91.9,60.7
"NC1(c2ccc(-c3nc4ccn5c(=O)[nH]nc5c4cc3-c3ccccc3)cc2)CCC1 + COc1cc2c(Oc3ccc4[nH]c(C)cc4c3F)ncnc2cc1OCCCN1CCCC1 [cediranib] (first compound 2 µM, partner dose 2 µM)",48.7,72,87.3,61.7,90.1,84.5,85.1,87.2,71.7,85.2
"CN(c1ncccc1CNc1nc(Nc2ccc3c(c2)CC(=O)N3)ncc1C(F)(F)F)S(C)(=O)=O + Nc1ncn([C@H]2C[C@H](O)[C@@H](CO)O2)c(=O)n1 [decitabine] (first compound 0.4 µM, partner dose 0.5 µM)",101,93.9,108,76,93.4,77,71.8,75.6,87.1,138
"CN(c1ncccc1CNc1nc(Nc2ccc3c(c2)CC(=O)N3)ncc1C(F)(F)F)S(C)(=O)=O + CC(=O)c1c(C)c2cnc(Nc3ccc(N4CCNCC4)cn3)nc2n(C2CCCC2)c1=O [palbociclib] (first compound 0.4 µM, partner dose 0.2 µM)",48.4,67.2,56.7,44.1,63.5,49.4,53.7,39.1,46.6,53.8
"CCCS(=O)(=O)Nc1ccc(F)c(C(=O)c2c[nH]c3ncc(Cl)cc23)c1F + COc1ccc(Cl)c(Nc2nc3ccccc3nc2NS(=O)(=O)c2cccc(NC(=O)C(C)(C)N)c2)c1 [XL147] (first compound 0.4 µM, partner dose 4 µM)",43.8,75.1,77.1,64,93.5,53.2,64.8,67.9,69.6,48
"NC1(c2ccc(-c3nc4ccn5c(=O)[nH]nc5c4cc3-c3ccccc3)cc2)CCC1 + Nc1nc(F)nc2c1ncn2[C@@H]1O[C@H](CO)[C@@H](O)[C@@H]1O [fludarabine] (first compound 2 µM, partner dose 1 µM)",3.99,1.78,21.5,26.7,36.4,62.4,72.8,83.3,68.1,27.6
"CS(=O)(=O)c1ccc(C(=O)Nc2ccc(Cl)c(-c3ccccn3)c2)c(Cl)c1 [vismodegib] + CO[C@H]1C[C@@H]2CC[C@@H](C)[C@@](O)(O2)C(=O)C(=O)N2CCCC[C@H]2C(=O)O[C@H]([C@H](C)C[C@@H]2CC[C@@H](OCCO)[C@H](OC)C2)CC(=O)[C@H](C)/C=C(\C)[C@@H](O)[C@@H](OC)C(=O)[C@H](C)C[C@H](C)/C=C/C=C/C=C/1C [everolimus] (first compound 5 µM, partner dose 0.1 µM)",51.2,66.1,67.4,58.7,88.9,66.3,93.1,81.8,98.8,73.2
"NC1(c2ccc(-c3nc4ccn5c(=O)[nH]nc5c4cc3-c3ccccc3)cc2)CCC1 + CC(C)(C)c1cnc(CSc2cnc(NC(=O)C3CCNCC3)s2)o1 [SNS-032] (first compound 2 µM, partner dose 0.05 µM)",40.6,61,97.8,61.4,102,87.4,46.9,67.9,68.7,77.3
